Laboratory results reported in the supplement of paper PMC8183993.
Where “and” joins values, the source holds several entries; their conditions need not be identical. Equal entries are not always repeated. Structures can show the parent of a compound that is named as a salt. ± gives the standard deviation of the averaged measurements. The full ranking holds about 3,200 compounds; the median of “nuclei count (viability) relative to DMSO” is about 99, and the lowest 2% start at about 16. The list shows a part of the results.

system: U2OS; assay: nuclei count (viability) relative to DMSO (% of DMSO); higher = more viable cells; conditions: 10 µM; 24 h
Procedure: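 Primary image-based screen in U2OS cells: compounds at 10 uM for 24 h, then a 1 h o-propargyl-puromycin (OPP) pulse, click labelling, and high-throughput microscopy. Mean cytoplasmic OPP intensity and nuclei count were normalised to DMSO wells within each plate (DMSO = 100) and averaged over triplicate plates.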

In order of rising nuclei count:
1. CC(=O)[C@]1(O)Cc2c(O)c3c(c(O)c2[C@@H](O[C@H]2C[C@H](N)[C@H](O)[C@H](C)O2)C1)C(=O)c1ccccc1C3=O [Idarubicin HCl]  11.6
2. COCC[n+]1c2c(n(Cc3cnccn3)c1C)C(=O)c1ccccc1C2=O  14.1
3. COc1ccc(F)c(F)c1C(=O)c1cnc(NC2CCN(S(C)(=O)=O)CC2)nc1N  35.8 ± 0.95
4. COc1cc([C@@H]2c3cc4c(cc3[C@@H](O[C@@H]3O[C@@H]5CO[C@@H](C)O[C@H]5[C@H](O)[C@H]3O)[C@H]3COC(=O)[C@H]23)OCO4)cc(OC)c1O [Etoposide]  44.3 ± 2
5. COc1cc([C@@H]2c3cc4c(cc3[C@@H](O[C@@H]3O[C@@H]5CO[C@@H](C)O[C@H]5[C@H](O)[C@H]3O)[C@H]3COC(=O)[C@H]23)OCO4)cc(OC)c1O [Etoposide (VP-16)]  50.9
6. Nc1nc2n[nH]nc2c(=O)[nH]1 [Azaguanine-8]  64.3
7. CCOC(=O)Nc1cc(-c2ccc(C)c(NS(C)(=O)=O)c2)nn2c(C)nnc12 [Bromosporine]  74.5
8. O=C1OCCN1/N=C/c1ccc([N+](=O)[O-])o1 [Furazolidone]  76.1
9. O=C1c2ccc(Nc3ccc(F)cc3F)cc2CCc2ccc(OC[C@H](O)CO)cc21 [Skepinone-L]  80
10. CS(=O)(=O)N1CCc2c(-c3cnc(N)nc3)nc(N3CCOCC3)nc21  81.3 ± 0.17
11. COc1cc2c(Oc3ccc4[nH]c(C)cc4c3F)ncnc2cc1OCCCN1CCCC1 [Cediranib (AZD2171)]  82.2
12. CN1CCN(CCCN2c3ccccc3Sc3ccc(Cl)cc32)CC1 [Prochlorperazine dimaleate]  85.7
13. COc1c2occc2c(OC)c2c(=O)cc(C)oc12 [Khellin]  87.4
14. CN(C)C[C@@H]1CCn2cc(c3ccccc32)C2=C(C(=O)NC2=O)c2cn(c3ccccc23)CCO1  88.1
15. CC(C)NCC(O)c1ccc(O)c(O)c1 (single isomer, unassigned; (+)) [(+)-Isoproterenol (+)-bitartrate salt]  88.6
16. CCCCC(F)(F)[C@@]1(O)CC[C@H]2[C@@H](CC(=O)[C@@H]2CCCCCCC(=O)O)O1 [Lubiprostone (Amitiza)]  88.7
17. O=S(=O)(O)NC1CCCCC1 [Cyclamic  acid]  88.8
18. O=C1c2ccccc2C(=O)c2c1ccc(O)c2O [Alizarin]  89.7
19. CC(C)NC[C@@H](O)COc1cccc2ccccc12 [(R)-(+)-Propranolol hydrochloride]  89.9
20. CCCNCC(O)COc1ccccc1C(=O)CCc1ccccc1 (stereo unspecified) [Propafenone]  90.7
21. C[N+](C)(C)CC[N+]1(C)Cc2c(Cl)c(Cl)c(Cl)c(Cl)c2C1 [Chlorisondamine diiodide]  90.8
22. CC(NCCC(c1ccccc1)c1ccccc1)c1ccccc1 (stereo unspecified) [Fendiline hydrochloride]  91.2
23. CCn1cc(-c2cccc(C(F)(F)F)c2)c2sc(C(=N)NC3CCS(=O)(=O)CC3)cc2c1=O  91.5
24. CCCNCC(O)COc1ccccc1C(=O)CCc1ccccc1 (stereo unspecified) [Propafenone hydrochloride]  91.7
25. COc1cc2c(cc1C(F)(F)F)N(C(=O)Nc1cc(F)cc(-c3cccnc3)c1)CC2  91.9
26. N=C(N)SCCc1c[nH]cn1 [Imetit dihydrobromide]  93.3
27. CNc1cc(OC)c(C(=O)NC2CCN(Cc3ccccc3)C2C)cc1Cl (stereo unspecified) [Nemonapride]  95.4
28. Nc1nc2ccc(Cl)cc2c2nc(-c3ccco3)nn12  95.4
29. Cc1nc(=O)c2cc(CN(C)c3ccc(C(=O)N[C@@H](CCC(=O)O)C(=O)O)s3)ccc2[nH]1 [Raltitrexed (Tomudex)]  95.8
30. Cc1ccc2c(c1)C(=O)C1(O)CCN(c3ccccc3)C1=N2 (stereo unspecified) [(?)-Blebbistatin]  96.3
31. CCCOc1ccn2c(C(C)=O)cc(-c3ccccc3S(C)(=O)=O)c2c1  96.4
32. CCC(=O)O[C@]1(C(=O)CCl)[C@@H](C)C[C@H]2[C@@H]3CCC4=CC(=O)C=C[C@]4(C)[C@@]3(F)[C@@H](O)C[C@@]21C [Clobetasol propionate]  96.6 ± 8
33. O=C(/C=C/c1ccc(O)c(O)c1)OCCc1ccccc1 [Caffeic acid phenethyl ester]  96.6
34. CC(C)NCC(O)c1ccc2ccccc2c1 (stereo unspecified) [Pronethalol hydrochloride]  97.9 ± 0.23
35. CN1CCN(c2c(F)cc3c(=O)c(C(=O)O)cn(CCF)c3c2F)CC1 [Fleroxacin]  98
36. NC(=O)C(c1ccccc1)(c1ccccc1)[C@@H]1CCN(CCc2ccc3c(c2)CCO3)C1 [Darifenacin hydrobromide]  98.1
37. NNc1nncc2ccccc12 [Hydralazine HCl]  98.2
38. COc1ccc([C@@H]2CC(=O)c3c(O)cc(O[C@@H]4O[C@H](CO)[C@@H](O)[C@H](O)[C@H]4O[C@@H]4O[C@@H](C)[C@H](O)[C@@H](O)[C@H]4O)cc3O2)cc1O [Neohesperidin]  98.6
39. Cc1cc2c(F)c(Oc3ncnn4cc(OC[C@@H](C)OC(=O)[C@H](C)N)c(C)c34)ccc2[nH]1  98.77 ± 0.34
40. CN(C)c1nc(N(C)C)nc(N(C)C)n1 [Altretamine]  99.3
41. O=C(NCCO)c1cccc(-c2cc(Nc3ccc(OC(F)(F)F)cc3)ncn2)c1  99.7
42. N[C@H](C(=O)O)[C@H](O)c1ccc(O)c(O)c1 [Droxidopa (L-DOPS)]  99.8
43. O=[N+]([O-])c1cccc2cn[nH]c12 [7-Nitroindazole]  100
44. CCN(CC)CCc1nc(-c2ccccc2)no1 [Oxalamine citrate salt]  101
45. C[C@H](CCC(=O)O)[C@H]1CC[C@H]2[C@@H]3[C@H](O)C[C@@H]4C[C@H](O)CC[C@]4(C)[C@H]3CC[C@]12C [Chenodeoxycholic acid]  101 ± 2.2
46. Cc1c(N(C)CS(=O)(=O)O)c(=O)n(-c2ccccc2)n1C [Dipyrone]  102
47. CC[C@H](C)C(=O)O[C@H]1CCC=C2C=C[C@H](C)[C@H](CC[C@@H]3C[C@@H](O)CC(=O)O3)[C@H]21 [Mevastatin]  102 ± 3.2
48. O=C(O)COC(=O)Cc1ccccc1Nc1c(Cl)cccc1Cl [Aceclofenac]  102
49. c1ccc(CN2CCC3(CCc4ccccc43)CC2)cc1 [L-693,403 maleate]  102
50. O=C1C[C@@H](c2ccc(O)cc2)Oc2cc(O)cc(O)c21 [Naringenin]  103
51. Nc1cc(C(Cl)=C(Cl)Cl)c(S(N)(=O)=O)cc1S(N)(=O)=O [Clorsulon]  103
52. O=c1oc2ccccc2c(O)c1Cc1c(O)c2ccccc2oc1=O [Dicumarol]  103
53. C[C@H]1C[C@@H]2[C@H]([C@@H](O)C[C@@]3(C)[C@H]2CC[C@]3(O)C(=O)CO)[C@@]2(C)C=CC(=O)C=C12 [Methylprednisolone, 6-alpha]  104
54. CC(C)NC[C@@H](O)COc1cccc2ccccc12 [(R)-Propranolol hydrochloride]  105
55. CNCC(O)c1ccc(OC(=O)C(C)(C)C)c(OC(=O)C(C)(C)C)c1 (stereo unspecified) [Dipivefrin hydrochloride]  105
56. C[C@@H]1C[C@H]2[C@@H]3CCC4=CC(=O)C=C[C@]4(C)[C@@]3(F)[C@@H](O)C[C@]2(C)[C@@]1(O)C(=O)CO [Dexamethasone]  105 ± 4.5
57. Cc1c(O)c(=O)ccn1C [Deferiprone]  106
58. COc1ccc([C@]2(C#N)CC[C@@H](C(=O)O)CC2)cc1OC1CCCC1  106
59. CCC(C)N(C)C(=O)c1cc2ccccc2c(-c2ccccc2Cl)n1 (stereo unspecified)  106
60. NNc1nncc2ccccc12 [Hydralazine hydrochloride]  106
61. CCCc1c(OCC(O)COc2ccc3c(=O)cc(C(=O)O)oc3c2CCC)ccc(C(C)=O)c1O (stereo unspecified)  107
62. COc1ccccc1OCC(O)CN1CCN(CC(=O)Nc2c(C)cccc2C)CC1 (stereo unspecified) [Ranolazine]  107
63. C=CC(=O)Nc1cccc(Oc2nc(Nc3ccc(N4CCN(C)CC4)cc3OC)ncc2Cl)c1  107
64. CCOC(=O)[C@H](CCc1ccccc1)N[C@H]1CS[C@H](c2cccs2)CN(CC(=O)O)C1=O [Temocapril HCl]  108
65. O=c1[nH]c(=O)n(C2CCCO2)cc1F (stereo unspecified) [Ftorafur]  108
66. CC(/C=C1\SC(=S)N(CC(=O)O)C1=O)=C\c1ccccc1 [Epalrestat]  108
67. CC1(C)O[C@@H]2C[C@H]3[C@@H]4CCC5=CC(=O)C=C[C@]5(C)[C@@]4(F)[C@@H](O)C[C@]3(C)[C@]2(C(=O)CO)O1 [Triamcinolone Acetonide]  108
68. C[C@H](CCC(=O)O)[C@H]1CC[C@H]2[C@@H]3[C@H](O)C[C@@H]4C[C@H](O)CC[C@]4(C)[C@H]3CC[C@]12C [Chenodiol]  109
69. CCC(=O)OCN1C(=O)C=CC1=O  109
70. O=S(=O)(O)c1cc(O)ccc1O [Ethamsylate]  111
71. Cn1ccc2cc(NC(=O)Nc3cccnc3)ccc21  112
72. Cc1ccc([N+](=O)[O-])cc1S(=O)(=O)N(C)C  116
73. C[C@H]1C[C@@H]2[C@H]([C@@H](O)C[C@@]3(C)[C@H]2CC[C@]3(O)C(=O)CO)[C@@]2(C)C=CC(=O)C=C12 [Methylprednisolone]  116
74. CC(=O)O[C@]1(C(C)=O)CC[C@H]2[C@@H]3C[C@H](C)C4=CC(=O)CC[C@]4(C)[C@H]3CC[C@@]21C [Medroxyprogesterone acetate]  118
75. CC(=O)OCC(CCn1cnc2cnc(N)nc21)COC(C)=O [Famciclovir]  118

For `C[C@@H]1CCN(C(=O)CC#N)C[C@@H]1N(C)c1ncnc2[nH]ccc12`, the nuclei count was 105 and 103.
